Laboratory results taken from the supplement of paper PMC10126150.
Sequences with one replicate were seen in a single cluster, so their values are uncertain.

system: ATP; assay: switch fluorescence ratio, 500 uM ATP over buffer (Cy3 cluster intensity, sum of 5 cycles each) (fold (ratio)); higher = stronger signal-on switching upon ATP binding; sequences stand for … in TCGTCGGCAGCGTCAGATGTGTATAAGAGACAGTTTTTTTTTTTTTTTTTTTTTTTTT…TC; settings: aptamer strand: ATP DNA aptamer (quencher-CACCTGGGGGAGTATTGCGGAGGAAGG + anchor), 100 nM annealed; ATP concentration: 500 uM; one replicate
Summary of the method: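 Clusters with intensities outside 100-1000 RFU were excluded. The remaining Cy3-labelled switching-strand clusters on a modified Illumina MiSeq flow-cell had been annealed to 100 nM quencher-labelled ATP aptamer and imaged in selection buffer, then after 15 min with 500 uM ATP at 22 °C, for five cycles separated by NaOH stripping and re-annealing. The fluorescence ratio, averaged per switch-domain sequence, is each cluster's summed target-cycle Cy3 intensity over its summed buffer-cycle Cy3 intensity.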
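Note: ATP exposure 15 min at 22 °C before imaging.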

| Sequence | switch fluorescence ratio |
| --- | --- |
| GGGTTACCTC | 0.967 |
| ATATGGTGAA | 1.02 |
| CGTGGGTTTT | 0.988 |
| GCCCCGGGG | 1.07 |
| GGCGAAGATT | 0.997 |
| AGCATTTCAG | 1 |
| TTGTAAGCG | 0.996 |
| TATCTTAACT | 1.07 |
| AAAGAGCCAT | 1.03 |
| AGATGGCGGA | 0.974 |
| GGGCGCGCAC | 1.03 |
| TCGGTTAAAA | 0.971 |
| TCTTGAGCGG | 1.01 |
| CGGAATTTCA | 1.02 |
| CACATTTCGG | 1.06 |
| CAGGCATGCA | 1.01 |
| TGTGGTCTGC | 0.933 |
| TGTTGAATTC | 1.01 |
| CTTATGCGCG | 0.995 |
| TGCCCGTATA | 1.04 |
| TGCGAGAGGG | 0.989 |
| CCTCTGTTT | 1.63 |
| GTAGGTGGTG | 1 |

| Sequence | switch fluorescence ratio |
| --- | --- |
| AGCGGAACTA | 0.997 |
| TCACGGGGAA | 1 |
| GCATTTGTCA | 0.992 |
| TCGACTGGCA | 1.38 |
| GGGAAGACGT | 1 |
| GCGATTAAAA | 0.988 |
| TACTTCCGCA | 1.31 |
| GGGCCCTGTA | 0.924 |
| ATCGGGTT | 0.998 |
| GAAAGTCTG | 0.966 |
| ACCGGAGAGG | 1.01 |
| CCCAGAGAAT | 0.985 |
| CATCGGCAAT | 1.77 |
| AGAGGGGGA | 0.987 |
| AGTAGTAATG | 0.973 |
| TAATGATCAG | 0.977 |
| CCGGTCACAC | 1.7 |
| GAGCAGTCTC | 1.23 |
| CGTCCAAAAT | 3.38 |
| AGGGCACGTG | 0.973 |
| GTCGGGGAGC | 1.01 |
| TGAATGATCC | 1.03 |
| GGGCTAAGAC | 1.13 |

| Sequence | switch fluorescence ratio |
| --- | --- |
| CTTAACACG | 1.06 |
| CTTATGGTA | 0.995 |
| CGAAGTAAAC | 4.26 |
| TATGAATTTT | 0.977 |
| TGAAAACGAG | 1.03 |
| CCGGCTTGTG | 1.03 |
| GACGCCGCTG | 1.26 |
| GCGGTCCCAC | 1.04 |
| GCGATTATCG | 1.02 |
| ATAGGGCCC | 1.02 |
| GTGCCGGTT | 0.877 |
| ATCTGCAGGC | 1.96 |
| TACATGATAG | 1.02 |
| GCCTAATTCG | 0.984 |
| AGGCAGTTCC | 1.03 |
| GATTGTTGG | 1.01 |
| TGGTTGAATG | 1.01 |
| TGATACAAGT | 0.993 |
| TAAACTTGGT | 1.01 |
| CATCTTCGGA | 1 |
| CAAGTCGGGC | 1.01 |
| TGTTCCTTTA | 1.02 |
| ACATGTTTAA | 1.03 |

| Sequence | switch fluorescence ratio |
| --- | --- |
| GATTCTGGGA | 0.963 |
| TCTCACCGAC | 1.59 |
| CAGGACGAG | 1.02 |
| CTTAGGACAC | 0.982 |
| CAATGTTACG | 0.996 |
| TAGAATTTGA | 0.98 |
| TTGCGAAGAG | 1.06 |
| TAGCACCGAA | 1 |
| CGTGTTATCG | 0.966 |
| ATCTAGTCGG | 0.968 |
| CCCGAATTAA | 1.12 |
| CATGATAAGG | 0.971 |
| AGAATTGG | 0.924 |
| GTATTATATA | 0.979 |
| TAAGACCGAA | 0.967 |
| ACTCTGTCAG | 1.25 |
| GATATGATGT | 1.02 |
| CTTGTGTACC | 1.03 |
| AGTTGAGATT | 1.01 |
| CTGGTAACGA | 1.01 |
| TTTAACTGGA | 0.989 |
| CACTGCCTTT | 1.05 |
| GTCGGTATT | 0.947 |

| Sequence | switch fluorescence ratio |
| --- | --- |
| TTTACTAGA | 0.954 |
| TTGGATGTAT | 1 |
| GATATCCGGC | 0.948 |
| GGTCTTTCGT | 1.02 |
| TCGGGCGGGA | 1.08 |
| ACTCCCGGCA | 1.78 |
| AAAAGGCTTG | 1.02 |
| GATATAAATG | 0.991 |
| ACTCAAAGTT | 0.957 |
| TTTACATTGC | 1.02 |
| CGAATGTTAC | 1.16 |
| GGGATAGCTG | 1.05 |
| TATCGACAGC | 1.04 |
| AGGTCCTGTT | 0.971 |
| AAATTCCGAG | 3.27 |
| GGAGGTACTC | 0.981 |
| AAGAATCGTA | 0.967 |
| AGAATGTAAC | 0.965 |
| AAACAGCCAC | 1.17 |
| TTTACGCTCA | 1.05 |
| AGCCGGCTA | 0.996 |
| AGCCCGTGTC | 1.03 |
| ATCGTGCATG | 1.01 |

| Sequence | switch fluorescence ratio |
| --- | --- |
| CTAGTCGAGG | 0.974 |
| GCGTGTAGCT | 1.02 |
| GGCCGGTGGC | 0.991 |
| TGGATGTGTA | 1.01 |
| CGACCTATGT | 0.989 |
| TACAAAGGGT | 1.01 |
| GCATACGGAT | 1.02 |
| AGGGGTGTGA | 1.01 |
| AGTCAGCTAT | 1.04 |
| TTAGAAGATA | 1.01 |
| CCAAACGTTG | 0.983 |
| TTTACGCAAA | 1.22 |
| ATGGGTAAAC | 1.05 |
| ATATTACCTT | 0.993 |
| ACTGACGGGT | 1.11 |
| GATGTTGGTA | 0.986 |
| GCGTGTATAT | 0.994 |
| TTGATTAAC | 0.955 |
| AGGGGGCTTC | 1.01 |
| AGTTTGACA | 1 |
| TTCATAGAGA | 0.979 |
| GCTGTCGGTA | 1.04 |
| CTATGTAGGA | 1 |

| Sequence | switch fluorescence ratio |
| --- | --- |
| ACCAAGTCT | 0.983 |
| CAAGCTCATT | 1.01 |
| ACTGGATGGC | 0.993 |
| CATAGGGGCA | 1.04 |
| CCTTAAGCC | 1.62 |
| CAAATAGCGC | 0.977 |
| CTAAGGAGTC | 0.982 |
| TTCTACGGTT | 1.05 |
| ATTATCTCTC | 1.04 |
| CGGGACTGAA | 1.04 |
| GGAACGATGC | 1.38 |
| CTGTCCAGGA | 1.01 |
| GCGAGAAAAC | 0.998 |
| AGGGACAGGT | 0.999 |
| GACTGAAGGA | 0.96 |
| ATCAATCTCT | 0.997 |
| CAACGGGTAC | 1.54 |
| CTCACCTCTC | 1.09 |
| TTCAGAGGGC | 1.06 |
| CTGGGAGGGC | 1.04 |
